# Experimental data published in the supplement of paper PMC11417369.
# ± gives the standard deviation of the averaged measurements. Some of the results follow.
# System: PfAP2-I AP2 domain 3 (GST-tagged)
# Experiment: gcPBM binding intensity (ln(normalized median fluorescence intensity)); higher = stronger DNA binding
# Method in brief: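 GST-tagged P. falciparum DNA-binding domains, expressed in E. coli (about 25 μg on average), were applied for 1 h to an Agilent 4 × 180k array of primer-extended double-stranded 36-bp intergenic genomic probes plus negative controls. The binding buffer was 1× PBS with 1% milk, 0.2 mg/ml BSA, 0.5% salmon testes DNA and 0.03% Triton X-100. Bound protein was detected with Alexa488 anti-GST antibody and scanned at 488 nm. Binding intensity is the highest Masliner-normalised natural-log median intensity across replicate spots of either probe orientation.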
row,Sequence,gcPBM binding intensity (ln)
1,TTATATATATATATATGTACACATATATAACATGAT [XGTACX_site6643],8.16 ± 0.47
2,ATAACCTAATAATACACACACATGAATATAAATAAC [CACACA_site6584],8.09 ± 0.4
3,ATATATATTTTATACGCATGTAATTATTATGTGGTC [TGCATGCA_site45],7.85 ± 0.55
4,AAACAATTTGGGTGTACACATGATACGTTCGATGAG [CACACA_site5160],8.3 ± 0.59
5,ATATTATACATTTATACACACATAAAAAGACAAAAA [CACACA_site3565],7.99 ± 0.46
6,AAATGTTAAAAAGAGAAAAACAATAAAAAACAATTA [CACACA_negctrl_site1044],7.66 ± 0.44
7,AGGTGTCATAGATGCACACAAAAGTAACACGCACCT [CACACA_site4418],9.27 ± 0.26
8,AAAAGGTTATCAAAATGTACGAAATGTTACAAAAAT [XGTACX_site6215],7.77 ± 0.67
9,AGTTATATGTACTACACACGTACACAAAATAAGATA [CACACA_site3719],8.55 ± 0.028
10,CTTAATTTTTTTTAATGTACATACATATAAACCTTT [XGTACX_site2233],7.96 ± 0.45
11,AAGGAGAAATATTGCACACGTGCAAAATGGTATGAG [CACACA_site259],11.1 ± 0.35
12,TATTCTTTTATGAATACACACATATACGAAAATATT [CACACA_site6585],7.58 ± 0.63
13,AAAATTAAAAATAACACACACATATTTATATTTATA [CACACA_site7329],7.59 ± 0.4
14,AAAATTTTTTTTGGCGCACACTAATAATAAAATATA [CACACA_site470],8.6 ± 0.24
15,GAATAATATGGACATACACACATATACATACCTATA [CACACA_site7075],8.07 ± 0.59
16,AAATATTATTGACGATGTACTTCTATTCATAAGTAT [XGTACX_site3964],7.55 ± 0.5
17,CTTTTTAATGAATACACACACACACCGATATATATA [CACACA_site5296],8.22 ± 0.64
18,TAAAACTTATACAAATGTACAAATATATATATATAT [XGTACX_site4661],9.27 ± 0.26
19,AGACGATAAATCATTCATTCATTTACCATCCAAAAA [CACACA_negctrl_site802],7.53 ± 0.65
20,TTTTAATTAGTACAAACACACATATACAGACAAAAA [CACACA_site2563],8.29 ± 0.4
21,TAATATAGAAAATGCATACACACTTTATATATATAT [CACACA_site911],9.02 ± 0.014
22,TACTATTATTATTGCACACTTATTATCCCTCGGATA [CACACA_site162],10.5 ± 0.41
23,AATATATATTAATACACACACACATATATATATATA [CACACA_site3786],9.43 ± 0.57

row,Sequence,gcPBM binding intensity (ln)
1,TGATCATAGAAACACACACACAAAAAAAAAAAAAAA [CACACA_site4008],8.12 ± 0.65
2,TTATTATTAGAAAAAAGTACACATATAAAATGTTAC [XGTACX_site6426],7.82 ± 0.092
3,GGATACATATGTAAAAGTACACATGAATATATACAT [XGTACX_site6469],7.67 ± 0.52
4,GTAAAATTAAAAATAACACACAAAAAAAAAAAAAAA [CACACA_site800],8.09 ± 0.76
5,AAAAAAAAAAGAAAAAGTACATACATACATATATAT [XGTACX_site6405],7.88 ± 0.83
6,TTGATAAAATCACTGGTGCATGTAGATATATAATAT,9.46 ± 0.11
7,AATAAACATTATTTTCGTATTCCAATTCTTTTTTTT [XGTACX_negctrl_site374],7.42 ± 0.94
8,TTCTTTTTTATTTATACATGCAATAAAAAATTGATT [TGCATGCA_site730],8.355 ± 0.078
9,TTTTTTTAAAACAAAAAAAAAAAAAAAAAAAAAAAA [TGCATGCA_negctrl_site418],8.21 ± 1.2
10,AAGAGAGAGAAATATGCACACATAAGGGAAATAAAT [CACACA_site8300],8.895 ± 0.049
11,TATATATGTATGTATGTACACACAAAAAATGGAATA [CACACA_site9235],8.05 ± 0.45
12,AAAAAAAAGAAAAACACACACATATTTATTTATAAC [CACACA_site6600],7.54 ± 0.66
13,TAAATAAATTTATGTACACACACAAATAAATACATA [CACACA_site5107],7.85 ± 0.2
14,TATATATTAAATTATAGTACACATTATATATAATTA [XGTACX_site4841],7.72 ± 0.11
15,TATATATATATATATAGTACACATATCACATAAATG [XGTACX_site6379],9.6 ± 0.49
16,ATAATATATGTATGTATGCACTTTTATTATTTTTTT,8.96 ± 0.15
17,ATAATATATATATTTTGTACACATGAAAAGGAGGAT [XGTACX_site5034],8.47 ± 0.6
18,ATCTTTCAATAATTCACACATATATATATATATATA [CACACA_site4598],9.49 ± 0.69
19,ATATATATATATGTACACATATATGTGTTTGTTTTT [GTGCAC_negctrl_site5],9.54 ± 0.2
20,CTATTACAAAGAAATTGTACATATATATATAAAAAC [XGTACX_site8800],8 ± 0.7
21,AATGAAGACTTTTTTACACACTTCATATCTTATAGA [CACACA_site7046],7.79 ± 0.81
22,AGCCACAATACGGAAACACACAAGTTATTTTATCAT [CACACA_site2724],7.79 ± 0.51
23,AATATTTTTAATTAATGTACATATTTATTATATAAA [XGTACX_site5112],7.71 ± 0.38

row,Sequence,gcPBM binding intensity (ln)
1,AAATTTTTTCCGATTTGTACTTATATTTCTTTATTA [XGTACX_site1762],7.93 ± 0.59
2,TTTTTATGAATTCTTTTGTTAATAATAATATGTTGT [TGCATGCA_negctrl_site198],7.56 ± 0.62
3,TTTTAACGTAATTCAAATGAGCAGAATTTTTTAAAA [CACACA_negctrl_site1800],7.46 ± 0.42
4,TATAATAATACTTATTGTACTATTAGTTTAATTCAT [XGTACX_site6638],7.46 ± 0.33
5,TATATAAATATACACCCACACACATATATATATATA [CACACA_site9247],9.54 ± 0.49
6,AATAATTTAATACATACACACGTATATCTTTTTTTT [CACACA_site8632],7.75 ± 0.57
7,TATATATATAACATATGTACATATATTTATAAATAC [XGTACX_site5484],8.44 ± 0.31
8,TATAAAAAAAAATGTGGTACATATTTCCATTTTCCA [XGTACX_site4571],7.44 ± 0.34
9,ATCGTAGTATAATATGAACACACACCCACCCACAAA [CACACA_site8616],8.89 ± 0.69
10,TATATTCCACTCATTGATTTTCTCTTCTCACAAAAA [CACACA_negctrl_site1016],8.29 ± 0.19
11,CATGAATTTTTTTAATGTACATTCACATCATAAAAA [XGTACX_site7475],7.92 ± 0.4
12,ATATATTATATATATAGTACGTATATAAATTTAATT [XGTACX_site5041],7.79 ± 0.4
13,GAAACTATGTAATGCACACCAAAATAAAATTATTAA [CACACA_site1904],10.9 ± 1
14,TCTTCTTAACCAACTATGAAAAGGAAAAATATAACA [GTGCAC_negctrl_site565],7.67 ± 0.46
15,TAAATCCGCACGCACACACACATATTAATAAAAAAA [CACACA_site7800],8.93 ± 0.042
16,ATTATAAAAAAGAAACGTACATATTTATTGTTTTTT [XGTACX_site2161],7.75 ± 0.42
17,AAACTAACTCTAACATGTACATATATATATATATAT [XGTACX_site6949],9.33 ± 0.52
18,GCTTATTTTAATTCTTGTACTTATTTATATACAAAT [XGTACX_site2099],8.25 ± 0.54
19,TAATGGTGTTCATGTGGTACACTTTATAAATTGGCA [XGTACX_site729],7.9 ± 0.47
20,TTGAAAATTCTTAAGGCACACACATATATAATATAT [CACACA_site8088],9.98 ± 0.32
21,TTTTGAAGTAATACATGTACTTAAATTACTAAAAAA [XGTACX_site1955],7.72 ± 0.53
22,ACTTTGCGTTAAAAGAGTACATAATATTTTTTTTTT [XGTACX_site7533],8.1 ± 0.39
23,ATACTTTATTAATATTGTACAAAATAAGAAAAAAAA [XGTACX_site310],7.75 ± 0.39

row,Sequence,gcPBM binding intensity (ln)
1,CACAACAGGGTTGAGGTGCGTAAAAATAGTAGAATA [GTGCAC_site9523],10.05 ± 0.028
2,ACATAAAAATTATGCACACTTAATAAAGCGAAATGT [CACACA_site3183],9.99 ± 0.53
3,TATATATATATGTGTACACAAAAAATATTATATTAT [CACACA_site5505],9.44 ± 0.099
4,TTTTTAATCCTTTGCGCATGTAAAATTATATATTTT [TGCATGCA_site306],8.3 ± 0.71
5,ACATAATTATTATGCACACATATTTTTATGTATTTA [CACACA_site698],10.3 ± 0.48
6,ATTCTATTTTTAAGTACACACATATATATATATATA [CACACA_site3658],9.45 ± 0.33
7,TCATATAAGTTTAGTAGTACTAAAAGTTAGAGAGAA [XGTACX_site3430],7.98 ± 0.35
8,AAATAAGAGCGTAGCACACACGCATTTTATAAATGG [CACACA_site4571],7.59 ± 0.71
9,AAAACAAAAGAATTCACACATATATATATATATATA [CACACA_site4777],9.29 ± 0.11
10,TGATTATTATAATTTAGTACATAATATTTTATATAA [XGTACX_site6125],7.51 ± 0.28
11,CAAGGAACCAGACACACACACATAAATGTATATATA [CACACA_site752],7.74 ± 0.45
12,ATATATGGAAAGAGTAGTACTATTATAGGGGTGTTA [XGTACX_site6785],7.9 ± 0.67
13,TTAAACGTACATAATACACACACATGTAGACATATA [CACACA_site8635],8.19 ± 0.28
14,AAAATTAACGAGTGCACACATATTTAGATAAAATAC [CACACA_site2936],9.99 ± 0.19
15,AAAATTAAACATACATCACACATGCATTATATTATG [CACACA_site5517],7.99 ± 0.78
16,AAAAAACTTCACATATGTACTTAAAAAAAATTAAAA [XGTACX_site2368],7.79 ± 0.16
17,GAACATTACGTAAATAAATAAATAAAAATAAATACA [XGTACX_negctrl_site25],7.63 ± 0.43
18,ATAAAGTCTATATTATGTACATATAATATAAATATT [XGTACX_site6703],8.16 ± 0.28
19,CAAAAAAAAATCTGTAGTACTTATTAATATTGCTGT [XGTACX_site4767],7.72 ± 0.18
20,TATTGTCTTGTATATGCATGTAGACCAAATATGTAA [TGCATGCA_site9],8.05 ± 0.56
